Results from publication PMC4336329 (PLoS ONE, 2015).
In all, about 310,000 compounds went through this assay and about 14,000 (4.5%) showed an effect of 50% or more. The effect is printed as a negative number. The list shows a part of the results.

molecular target: human ether-à-go-go-related gene (hERG) potassium channel (human, UniProt Q12809); test: primary screen, population patch clamp on CHO cells stably expressing hERG
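Also: peak tail current of the secondary pulse compared with the same well before compound.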

Chain of human ether-à-go-go-related gene (hERG) potassium channel (Q12809 whole entry, looked up): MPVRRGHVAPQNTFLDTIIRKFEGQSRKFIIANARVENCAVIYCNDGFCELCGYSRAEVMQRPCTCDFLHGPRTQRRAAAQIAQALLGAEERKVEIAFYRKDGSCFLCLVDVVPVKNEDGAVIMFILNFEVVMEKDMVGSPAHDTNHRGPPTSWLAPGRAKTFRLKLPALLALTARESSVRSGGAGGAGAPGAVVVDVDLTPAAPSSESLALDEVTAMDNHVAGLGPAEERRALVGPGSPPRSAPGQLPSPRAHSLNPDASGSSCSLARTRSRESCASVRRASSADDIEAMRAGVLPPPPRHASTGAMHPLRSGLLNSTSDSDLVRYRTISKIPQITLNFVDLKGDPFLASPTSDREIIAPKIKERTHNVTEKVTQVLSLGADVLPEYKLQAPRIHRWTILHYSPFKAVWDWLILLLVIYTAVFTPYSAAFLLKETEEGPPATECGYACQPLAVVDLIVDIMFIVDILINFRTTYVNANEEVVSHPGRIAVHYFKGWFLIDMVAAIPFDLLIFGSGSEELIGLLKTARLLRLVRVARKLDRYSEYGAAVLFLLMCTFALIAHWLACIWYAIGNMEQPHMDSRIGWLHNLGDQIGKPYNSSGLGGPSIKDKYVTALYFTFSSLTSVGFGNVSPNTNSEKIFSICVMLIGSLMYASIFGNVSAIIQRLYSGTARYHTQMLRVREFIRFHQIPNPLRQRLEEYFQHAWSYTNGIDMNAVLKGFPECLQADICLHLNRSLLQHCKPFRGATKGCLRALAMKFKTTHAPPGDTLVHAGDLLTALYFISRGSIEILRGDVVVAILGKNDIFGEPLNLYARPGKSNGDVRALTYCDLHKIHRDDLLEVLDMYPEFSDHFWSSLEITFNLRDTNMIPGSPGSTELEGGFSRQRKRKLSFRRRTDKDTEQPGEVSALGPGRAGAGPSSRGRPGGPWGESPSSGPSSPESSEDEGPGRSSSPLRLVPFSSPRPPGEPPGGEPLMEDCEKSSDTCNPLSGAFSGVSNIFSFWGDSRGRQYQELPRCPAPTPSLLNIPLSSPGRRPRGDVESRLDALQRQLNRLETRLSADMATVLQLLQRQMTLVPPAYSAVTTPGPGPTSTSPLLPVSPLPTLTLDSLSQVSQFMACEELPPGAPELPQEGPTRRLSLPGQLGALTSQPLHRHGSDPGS

Compound	hERG current change (%, negative = inhibition) at 10uM
CCOc1ccc2[nH]c(=O)c(CN(CCN3CCOCC3)Cc3nnnn3C(C)(C)CC)cc2c1	-6.85%
O=C1CNC(=O)c2c(nc3n2CCC3)N1	-3.76%
Cc1ccc2c(CN3CCC(C(N)=O)CC3)cc(=O)oc2c1C	14.4%
CCOC(=O)CSc1nnc(CNC(=O)c2cccc(C)c2)n1C	2.16%
COc1cccc(N2CCN(C(=S)Nc3ccc(F)cc3)CC2)c1	16.1%
S=C(Nc1ccccc1Cl)N(Cc1cccnc1)Cc1ccco1	-4.94%
CCOC(=O)C1(CCOc2ccccc2)CCN(Cc2ccccc2O)CC1	-30.8%
CCSc1nnc(SCC(=O)N2CCN(C(=O)c3ccco3)CC2)s1	-33.4%
CC#CC[N+](C)(C)CC(=O)c1ccccc1.[Br-]	5.71%
COc1cccc(NC(=O)NC(=O)c2c(C)cc(Cl)nc2Cl)c1	-6.63%
CCCCN(C(=O)c1ccc(Br)o1)C1CCS(=O)(=O)C1 (stereo not drawn)	-11.9%
COc1ccccc1NCCC(=O)O	13.2%
CCN1CCCC1CNC(=O)c1cc(N)ccc1OC.O.O=C(O)C(=O)O (stereo not drawn)	13.5%
CC(C)Cn1c(SCC(=O)c2ccc(Cl)s2)nnc1-c1ccco1	-76.7%
CNC(=S)N1N=C(c2ccc(C)cc2)CC1c1ccc(OC)cc1 (stereo not drawn)	-0.896%
O=C(N/C(=C\c1cccc([N+](=O)[O-])c1)C(=O)N1CCCCC1)c1cccs1	7.93%
c1cc(-c2noc(CCC3CCCC3)n2)ccn1	-1.83%
Cc1ncn2cc(-c3ccc(Cl)cc3Cl)[nH]c(=O)c12	2.09%
NC(=O)c1ccc(C(=O)N/N=C(/Cc2ccccc2)c2ccccc2)cc1	18.6%
COc1cccc(NC(=O)c2cc([N+](=O)[O-])ccc2N2CCN(C)CC2)c1	-57.7%
O=C(OCC(=O)N1CCOCC1)c1c(Cl)ccc(Cl)c1Cl	-15.9%
CC(=O)c1cccc(NC(=O)N2CCN(S(C)(=O)=O)CC2)c1	5.44%
Cc1cnc(NC(=O)c2ccncc2)s1	10.2%

Compound	hERG current change (%, negative = inhibition) at 10uM
CC(C)OP(=O)(OC(C)C)C(NC(=O)c1ccccc1Br)C(N)=O (stereo not drawn)	3.63%
Nc1c2c(nc3sc4c(c13)CCCC4)-c1ccccc1CC2	11.7%
Cc1ccccc1Nc1ncnc(N)n1	12%
Cc1cc(C)nc(NS(=O)(=O)c2ccc(-n3cccc3)cc2)n1	5.66%
COc1ccccc1OC(C)C(=O)Nc1nc(-c2ccc(S(=O)(=O)N3CCOCC3)cc2)cs1 (stereo not drawn)	18.2%
CCOC(=O)C1CCCN(C(=O)c2sc3nc4n(c(=O)c3c2C)CCC4)C1 (stereo not drawn)	2.39%
CC(C)N1CCc2c(sc(NC(=O)c3ccc([N+](=O)[O-])o3)c2C(N)=O)C1.Cl	-4.92%
Cc1ccc(C(C#N)c2ccc3c(C(F)(F)F)cc(C(F)(F)F)nc3n2)cc1 (stereo not drawn)	11.1%
CNC(=O)C1(C)C=CCN1C(=O)c1ccccc1 (stereo not drawn)	16.3%
Cc1cc2oc(C(=O)N3CCN(CCc4ccccn4)CC3)c(C)c2cc1C	-21.2%
NC(=O)C1CCN(C(=O)COc2ccc(S(=O)(=O)NCc3ccccc3)cc2Cl)CC1	5.03%
Cn1c(N)c(C(=O)COC(=O)c2ccco2)c(=O)n(C)c1=O	5.09%
Cc1ccc(/C([O-])=C(/C(=S)NCc2ccco2)[n+]2ccccc2)cc1	-15.5%
COC(=O)c1cc2c(C)nn(-c3ccccc3)c2s1	2.91%
O=C(C1CC1)N(CCc1ccccc1)Cc1nc2ccccc2c(=O)[nH]1	-19.1%
CCOc1ccccc1-n1nnnc1SCC(=O)OC	19.1%
COc1ccccc1C(=O)Nc1cccc(NC(C)=O)c1	10.9%
Cc1ccc2c(c1)C1CN(C)CCC1N2C(=O)Nc1cccc(Cl)c1 (stereo not drawn)	-51.1%
Cl.OC1(c2ccccc2)CNCCc2ccccc21 (stereo not drawn)	15.8%
c1ccc2c(c1)nc(NC1CCCCC1)c1nncn12	-35.2%
COc1ccc(-c2cc(C)no2)cc1S(=O)(=O)N1CC(=O)Nc2ccccc21	14.4%
COc1ccccc1OCCOc1ccc(C(=O)c2ccccc2)cc1	10.8%
C[C@@H](O)CC(=O)O	-5.45%

Compound	hERG current change (%, negative = inhibition) at 10uM
O=C(c1nc2ncccn2n1)N1CCN(c2ccc(F)cc2)CC1	-23.4%
COc1ccc(Cn2nnnc2CN(Cc2cc3ccc(C)cc3[nH]c2=O)C2CCCC2)cc1	-24.6%
COc1ccc(/C=C/C(=O)N(Cc2ccccc2)c2ccccn2)cc1OC	-76.6%
COc1ccc(CN(CC(=O)NCC2CCCO2)C(=O)CCC(=O)Nc2cc(C)on2)cc1 (stereo not drawn)	0.303%
COc1ccccc1CNC(=O)CNC(=O)c1ccc(Br)o1	5.22%
CCC(=O)c1ccc(OCC(O)CN2CCN(C(c3ccccc3)c3ccccc3)CC2)cc1 (stereo not drawn)	-67.2%
COc1ccc(CNC(=O)C(=O)NCC2OCCN2C(=O)c2ccc(OC)cc2)cc1 (stereo not drawn)	1.53%
Cc1cc(C)c2ccc(=S)[nH]c2n1	17%
CS(=O)(=O)N(CC(=O)NCCSCc1ccccc1)c1ccccc1	5.17%
COc1ccc(NC(=O)NC(c2ccccc2)c2ccccc2)c(OC)c1	16.2%
Cc1ccc(N2C(=O)c3sc4nnc(C)c(=O)n4c3C2=O)cc1	-9.37%
COc1ccc(N2CCN(C(=O)C3CCN(C(=O)c4ccc([N+](=O)[O-])cc4)CC3)CC2)cc1	-69%
COc1ccc(S(=O)(=O)Oc2ccc(C(=S)N3CCOCC3)cc2OC)cc1	-0.365%
Cc1ccc(C)c(N2CCN(C(=O)C3CCCN(S(=O)(=O)c4cnc[nH]4)C3)CC2)c1 (stereo not drawn)	-2.62%
O=C(/C(C=Nc1cccc(C(F)(F)F)c1)=C(/O)c1ccco1)C(F)(F)F	-29.8%
Cc1ccc(S(=O)(=O)N2CCN(C(=O)c3ccccc3)CC2)cc1	-31%
Cc1cccc(NC(=O)C2CCCN2C(=O)OCC(C)C)c1 (stereo not drawn)	-2.25%
O=C(CSc1nnnn1-c1ccccc1)Nc1ccc(Cl)cn1	2.66%
CC(C)n1nnnc1SCC(=O)NCc1cccs1	12.6%
Cc1cccc(C)c1Nc1nnc(SCC(=O)NCc2ccco2)s1	8.86%
C=CCN(C(=O)Cn1nc(C)n2c(cc3cc(C)ccc32)c1=O)c1ccccc1	-36.5%
COc1ccc(CC(=O)N2CCc3cc(OC)c(OC)cc3C2C)c(OC)c1 (stereo not drawn)	-6.22%
CCCNC(=O)C1CN(S(=O)(=O)c2ccc(C)cc2)c2ccccc2O1 (stereo not drawn)	-5.47%

Compound	hERG current change (%, negative = inhibition) at 10uM
CCO/C(C)=N/n1c2nc3ccccc3nc2c2c(=O)n(Cc3ccccc3Cl)c(C)nc21	-28.7%
CCN(C(=O)c1cc2c(C)nc3ccccc3c2o1)c1cc(Cl)ccc1OC	-9.19%
COC(=O)COc1nc(C)c2c(c1C#N)CC(C)(C)OC2	3.5%
CC(C)c1ccc(S(=O)(=O)c2nnn3c2nc(NCC2CCCO2)c2ccccc23)cc1 (stereo not drawn)	-4.47%
COc1ccc(NC(=S)N(CCCN2CCCC2)Cc2ccco2)cc1	-39.4%
O=[n+]1c2c(n([O-])c3cc(Br)ccc31)CCCC2	-27.2%
CCN1CCN(C(CNS(=O)(=O)c2ccc(Br)cc2)c2cccnc2)CC1 (stereo not drawn)	-65.8%
CCCCC(=O)N/N=C(\C)CC(=O)Nc1cc(Cl)ccc1OC	-1.21%
CCCCNC(=O)CCn1c(=O)c2ccccc2n(Cc2ccccc2C)c1=O	0.168%
O=C(NC1CCN(S(=O)(=O)c2cccc(F)c2)CC1)c1cccc(F)c1	18.4%
O=[N+]([O-])c1ccc(S(=O)(=O)NCC(c2ccco2)N2CCc3ccccc3C2)cc1 (stereo not drawn)	-20.2%
COC(=O)c1ccc(CSc2nnc(N)s2)o1	4.89%
COc1ccc(S(=O)(=O)N2CCCC(C(=O)NCCCn3ccnc3)C2)cc1OC (stereo not drawn)	7.83%
Cl.N[C@@H](CCl)C(=O)O	2.44%
COc1ccc(C(CNCC(=O)Nc2ccccc2F)N(C)C)cc1.O=C(O)C(=O)O (stereo not drawn)	-35.1%
CC1OC(Nc2cccc3ccccc23)C(O)C(O)C1O (stereo not drawn)	0.146%
Cc1cccc(SCc2noc(C(=O)NCC3CCCO3)c2C(=O)O)c1 (stereo not drawn)	8.89%
O=C(CN(C(=O)CNC(=O)c1ccco1)c1ccc2c(c1)OCO2)NC1CCCCC1	-4.4%
O=C1CN(C(=O)CSc2nc3ccccc3c(=O)n2CCCN2CCOCC2)c2ccccc2N1	-19.7%
O=C(Nc1nnc(-c2ccc3c(c2)CCCC3)o1)C1CCCCC1	4.3%
O=S(=O)(c1ccc(Br)s1)N1CCN(c2ccccn2)CC1	5.03%
